PubChem BioAssay AID488969 (Vanderbilt High Throughput Screening Facility, 2010)
Whole data set: some 110,000 compounds, median “z-score” near -0.1, cut for the highest 2% near 2. This is one part of the list.

molecular target: Metabotropic glutamate receptor 8 (Rattus norvegicus) (UniProt P70579); experiment: mGluR8 Gi/Go-coupled signaling modulation – cell-based, rat, thallium flux, HTS, primary screen (AID 488969); conditions: HEK293 rat mGluR8, GIRK (G protein-gated inwardly rectifying potassium channel) thallium flux, FluoZin2; at 10 µM; stronger effect = higher value; submaximal glutamate (EC20) added with thallium
Sequence of UniProt P70579 (P70579 whole entry, looked up): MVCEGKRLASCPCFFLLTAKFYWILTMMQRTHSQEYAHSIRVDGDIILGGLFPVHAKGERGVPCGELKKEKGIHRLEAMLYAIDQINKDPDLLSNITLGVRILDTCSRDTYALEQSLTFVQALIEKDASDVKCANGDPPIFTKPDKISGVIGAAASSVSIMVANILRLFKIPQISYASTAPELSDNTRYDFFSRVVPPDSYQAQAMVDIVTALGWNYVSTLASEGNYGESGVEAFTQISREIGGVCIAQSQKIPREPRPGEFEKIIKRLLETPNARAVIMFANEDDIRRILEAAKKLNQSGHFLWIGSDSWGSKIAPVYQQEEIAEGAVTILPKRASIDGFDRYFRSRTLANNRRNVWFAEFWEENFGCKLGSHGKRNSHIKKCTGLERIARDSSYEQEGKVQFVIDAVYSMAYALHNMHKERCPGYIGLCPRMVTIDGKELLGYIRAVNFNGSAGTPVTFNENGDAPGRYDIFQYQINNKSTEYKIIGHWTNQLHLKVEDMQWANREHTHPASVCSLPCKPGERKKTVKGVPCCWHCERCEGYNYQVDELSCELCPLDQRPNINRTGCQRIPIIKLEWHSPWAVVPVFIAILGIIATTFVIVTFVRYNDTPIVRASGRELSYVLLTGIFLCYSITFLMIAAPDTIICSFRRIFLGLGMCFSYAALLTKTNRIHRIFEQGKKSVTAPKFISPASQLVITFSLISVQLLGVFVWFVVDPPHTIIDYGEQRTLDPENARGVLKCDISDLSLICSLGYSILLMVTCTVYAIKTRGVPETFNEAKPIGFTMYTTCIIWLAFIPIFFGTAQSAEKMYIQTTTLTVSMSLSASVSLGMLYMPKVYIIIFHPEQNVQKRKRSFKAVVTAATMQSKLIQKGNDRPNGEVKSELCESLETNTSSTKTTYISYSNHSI

Going from CCOCCn1c(SCCCc2ccccc2)nc2c1c(=O)[nH]c(=O)n2C to COc1ccc(CNc2nc3c(c(=O)[nH]c(=O)n3C)n2CCCc2ccccc2)cc1, the z-score rises from -0.4 to 1.37.

Going from O=C(Nc1cc(C(F)(F)F)ccc1F)C1CCCCC1 to CC(C)N(Cc1cc2ccccc2[nH]c1=O)C(=O)C1CCCCC1, the z-score falls from 1.81 to 0.128.

Going from O=C1C(Oc2ccccc2)C(c2cccs2)N1Cc1ccc2c(c1)OCO2 (centres undefined) to O=C(CSc1c[nH]c2ccccc12)NCc1ccc2c(c1)OCO2, the z-score rises from 0.237 to 2.27.

First: Cc1n[nH]c(=O)nc1NCc1ccccc1
Second: CC1=C(C(N)=O)C(c2ccccn2)n2nc(SCc3ccccc3)nc2N1 (centres undefined)
The z-score of the first is lower: -0.734 for the first, 0.156 for the second.

Compared with CN(C)S(=O)(=O)c1ccc(C(=O)Nc2nnc(SCc3ccccc3)s2)cc1, NC(=O)c1ccc(-n2nnnc2SCc2ccccc2)cc1 is lower in z-score: -0.317 for the first, -0.34 for the second.

First: O=C(c1nnc(-c2ccncc2)o1)c1ccccc1Cl
Second: Cc1cccc(NC(=O)NNC(=O)c2cc(-c3ccccc3Cl)nc3ccccc23)c1
The z-score of the first is higher: 0.577 for the first, -0.409 for the second.

First: CCC(c1nnc(SCC(=O)Nc2ccc(C(C)=O)cc2)n1C1CCCCC1)N(C)C (centres undefined)
Second: CC(=O)c1ccc(NC(=S)N2CCCC(CO)C2)cc1 (centres undefined)
The z-score of the first is higher: -0.0905 for the first, -0.267 for the second.

First: Cc1ccc(-c2csc(=S)n2CC(=O)OCC(=O)NC(C)C(C)C)cc1 (centres undefined)
Second: CCOC(=O)c1c(-c2ccc(C)cc2)csc1NC(=O)C1CC=CCC1C(=O)O (centres undefined)
The z-score of the first is lower: -0.423 for the first, 0.33 for the second.

Compared with Nc1nonc1C(=O)OCC(=O)N1CCOCC1, COc1cc(C(=O)OCC(=O)N2CCCC2)cc(OC)c1OC is lower in z-score: -0.145 for the first, -0.296 for the second.

Going from O=[N+]([O-])c1ccccc1C1Nc2cccc3cccc(c23)N1 to O=[N+]([O-])c1ccc(N2CCN(S(=O)(=O)c3ccc4ccccc4c3)CC2)cc1NCc1ccco1, the z-score falls from 0.208 to -0.0817.

First: COc1ccc(-c2nc3c([nH]2)c(=O)n(C)c(=O)n3C)c(OC)c1
Second: CCOc1c(OC)cccc1C1CC(=O)Nc2cc(OC)c(OC)cc21 (centres undefined)
The z-score of the first is higher: -0.154 for the first, -1.8 for the second.

First: CCOC(=O)c1c(NC(=O)c2cc(C)oc2C)sc(C(=O)Nc2ccc(Cl)cc2)c1C
Second: CCOC(=O)c1c(-c2ccc(F)cc2)csc1NC(=O)CCN1C(=O)c2ccccc2C1=O
The z-score of the first is lower: 0.127 for the first, 0.297 for the second.

First: O=C(CC12CC3CC(CC(C3)C1)C2)Nc1ccc2c(c1)COC2=O
Second: COC(=O)COc1cccc(NC(=O)COc2ccccc2)c1
The z-score of the first is higher: -0.441 for the first, -1.71 for the second.

Going from CC(C)NS(=O)(=O)c1ccc(Oc2ncc(C(F)(F)F)cc2Cl)cc1 to O=C(O)c1c[nH]c2cc(C(F)(F)F)ccc2c1=O, the z-score falls from 0.531 to -0.0696.

First: Cc1ccc(N(CC(=O)NCc2ccncc2)S(C)(=O)=O)cc1
Second: Cc1ccccc1NS(=O)(=O)c1ccc(NC(=O)c2ccco2)cc1
The z-score of the first is higher: -0.00504 for the first, -0.401 for the second.

First: C/C=C/C=C/C(=O)Nc1nccs1
Second: Cc1cc(C)nc(NC(=O)/C=C/c2ccc(Cl)cc2Cl)c1
The z-score of the first is higher: 0.204 for the first, -0.494 for the second.

Going from CC1=C(C(=O)OC(C)C)C(c2coc3ccccc3c2=O)C2=C(CCCC2=O)N1 (centres undefined) to CCOC(=O)c1c(-n2c(C)cc(C=O)c2C)sc2c1CCCC2, the z-score falls from -0.336 to -0.366.

First: O=C(Nc1ccc(Cl)cc1)Nc1nnc(CSc2ccc(Cl)cc2)s1
Second: Cc1nc(CSc2ccc(Cl)cc2)cc(N2CCOCC2)n1
The z-score of the first is lower: -0.625 for the first, -0.356 for the second.

Compared with Cc1nc2ccccn2c1C(=O)N/N=C/c1cc(C)n(-c2ccc(Cl)cc2)c1C, Cc1nc2cc(-c3cccc(F)c3)nn2c(N2CCN(C(=O)c3ccco3)CC2)c1C is higher in z-score: -0.72 for the first, -0.0434 for the second.

Compared with O=C(CSc1nc2[nH]ncc2c(=O)[nH]1)N1CCCC1, O=C(CSc1nnc(NC(=O)C2CCC2)s1)NC1CC1 is higher in z-score: -0.204 for the first, 0.0674 for the second.

First: Cc1ccc(Oc2ncc(CN3CC(C)OC(C)C3)s2)cc1 (centres undefined)
Second: Cc1cc(=O)oc2cc(OCC3CC(c4ccc(Cl)cc4)=NO3)ccc12 (centres undefined)
The z-score of the first is lower: -0.107 for the first, -0.0634 for the second.

First: COc1ccccc1NC(=S)NCc1cccnc1
Second: CCCCOc1ccccc1P(=O)(O)CP(=O)(c1ccccc1)c1ccccc1
The z-score of the first is lower: -0.0019 for the first, 0.154 for the second.

Compared with Cc1cc(C)nc(N2CCCC(C(=O)Nc3nc4ccc(S(C)(=O)=O)cc4s3)C2)n1 (centres undefined), Cc1ccc2[nH]c(=O)c(CN(CCN3CCOCC3)C(=O)Nc3ccccc3F)cc2c1 is lower in z-score: -0.27 for the first, -0.743 for the second.

First: Cc1nn2cc(-c3ccc(N)cc3)nc2s1
Second: N#CC1=C(N)Oc2cc(N)ccc2C1c1ccc(F)cc1 (centres undefined)
The z-score of the first is higher: -0.741 for the first, -0.769 for the second.

Going from CN1CCN(C(=O)CN(Cc2ccccc2)S(C)(=O)=O)CC1 to C/C(Cn1cnc([N+](=O)[O-])n1)=N\NC(=O)c1ccc(Br)cc1, the z-score rises from -0.686 to -0.261.

First: COc1cc(/C=C(\C#N)c2nc3c(s2)CC(C)CC3)ccc1O (centres undefined)
Second: COc1cc(C(=O)O)ccc1OCc1c(C)noc1C
The z-score of the first is higher: 1.58 for the first, -0.061 for the second.

Going from COc1ccc(CC(=O)c2ccc(OC)c(OC)c2C)cc1OC to COc1ccc(NC(=O)C(c2cc3c(cc2[N+](=O)[O-])OCO3)N(C)C)cc1 (centres undefined), the z-score falls from -0.202 to -0.349.
